In article PMC4336329 (PLoS ONE, 2015):
Hit rate of the full screen: of about 310,000 compounds, about 14,000 (4.5%) showed an effect of 50% or more. The effect is printed as a negative number. Some of the results follow.

biological target: human ether-à-go-go-related gene (hERG) potassium channel (human, UniProt Q12809); experiment: primary screen, population patch clamp on CHO cells stably expressing hERG
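Further: peak tail current of the secondary pulse compared with the same well before compound.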

human ether-à-go-go-related gene (hERG) potassium channel, sequence (Q12809 whole entry, looked up): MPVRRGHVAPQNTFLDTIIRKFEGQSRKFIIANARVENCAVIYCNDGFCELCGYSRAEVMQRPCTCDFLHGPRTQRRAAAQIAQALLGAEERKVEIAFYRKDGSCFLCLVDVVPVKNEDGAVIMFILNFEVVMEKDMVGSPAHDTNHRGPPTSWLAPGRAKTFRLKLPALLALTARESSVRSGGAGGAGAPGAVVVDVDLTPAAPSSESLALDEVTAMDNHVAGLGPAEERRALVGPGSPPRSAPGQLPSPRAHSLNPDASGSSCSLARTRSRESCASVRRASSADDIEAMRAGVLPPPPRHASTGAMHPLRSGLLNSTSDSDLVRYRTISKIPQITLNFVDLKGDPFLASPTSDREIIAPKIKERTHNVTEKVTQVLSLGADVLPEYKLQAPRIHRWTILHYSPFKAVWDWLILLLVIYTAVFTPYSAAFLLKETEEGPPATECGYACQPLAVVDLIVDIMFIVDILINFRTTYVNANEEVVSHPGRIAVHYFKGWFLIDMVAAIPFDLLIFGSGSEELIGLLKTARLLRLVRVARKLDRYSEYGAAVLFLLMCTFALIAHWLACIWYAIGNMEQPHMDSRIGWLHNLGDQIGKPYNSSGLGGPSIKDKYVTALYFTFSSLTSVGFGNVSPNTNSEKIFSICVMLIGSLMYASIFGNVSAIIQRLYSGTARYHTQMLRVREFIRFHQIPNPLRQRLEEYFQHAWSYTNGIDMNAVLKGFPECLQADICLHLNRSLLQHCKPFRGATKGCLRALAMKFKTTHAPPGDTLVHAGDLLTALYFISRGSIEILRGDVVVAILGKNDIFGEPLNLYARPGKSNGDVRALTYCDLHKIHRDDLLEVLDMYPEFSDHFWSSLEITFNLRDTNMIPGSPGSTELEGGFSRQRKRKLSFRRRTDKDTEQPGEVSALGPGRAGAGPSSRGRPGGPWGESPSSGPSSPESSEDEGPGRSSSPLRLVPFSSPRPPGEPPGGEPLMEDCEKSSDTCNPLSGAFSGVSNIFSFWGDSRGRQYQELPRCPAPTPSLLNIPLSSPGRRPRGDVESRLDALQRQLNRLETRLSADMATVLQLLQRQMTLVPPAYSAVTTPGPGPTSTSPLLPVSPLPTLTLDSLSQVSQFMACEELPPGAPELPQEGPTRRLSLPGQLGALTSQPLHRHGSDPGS

| SMILES | hERG current change (%, negative = inhibition) at 10uM [%] |
| --- | --- |
| O=C(c1ccccc1Cl)N1CCN(c2ncccn2)CC1 | 1.44 |
| CC(=O)N1N=C(c2cccc(Br)c2)OC12CCCC2 | 2.24 |
| COc1cccc(/C=N/NC(=O)c2cc(-c3ccccn3)nc3ccccc23)c1O | 7.5 |
| CCOc1cc(CNc2ccc(N3CCCC3)cc2)cc(Cl)c1OC | -6.14 |
| COc1ccc(C2/C(=C(/O)c3ccccc3)C(=O)C(=O)N2c2ncccn2)cc1OC (stereo not shown) | 7.54 |
| COc1ccc(CNC(=O)COC(=O)c2ccco2)cc1 | 28.3 |
| NC(=O)c1c(NC(=O)Cn2cnc([N+](=O)[O-])n2)sc2c1CCCC2 | -11.4 |
| CC(C)N1CCc2c(sc(NC(=O)c3ccc(S(=O)(=O)N(C)CC4CCCO4)cc3)c2C(N)=O)C1.Cl (stereo not shown) | -12.8 |
| CCOc1ccc(/C=N/NC(=O)CN2CCSCC2)cc1 | 1.7 |
| COc1ccc(CC(=O)NCC(c2ccc(OC)cc2)N(C)C)cc1 (stereo not shown) | 13.7 |
| COCCN(C(=O)COC(=O)c1ccc2[nH]c(C)c(C)c2c1)c1c(N)n(Cc2ccccc2)c(=O)[nH]c1=O | 1.46 |
| CCOc1ccccc1NC(=O)CCc1nnc2ccc(N3CCC4(CC3)OCCO4)nn12 | -5.37 |
| CCOc1ccc(NC(=O)CSc2nnc(C)n2Cc2ccccc2)cc1 | -16.4 |
| COc1ccc(/C=C/C(=O)Nc2ccc(S(=O)(=O)Nc3onc(C)c3C)cc2)cc1OC | 29.6 |
| COc1ccc(C(=O)NCCCOC(C)C)cc1OC1CCN(C(C)=O)CC1 | 17.1 |
| COc1ccc(C(=O)OCC(=O)Nc2ccc(Cl)cn2)cc1 | 22.8 |
| CCN(CC)CCNc1ncnc2c1[nH]c1ccc(OC)cc12 | -63.4 |
| O=C(Cn1nnc(-c2ccccc2-n2cnnn2)n1)N1CCCCC1 | 2.63 |
| COc1cccc(C(=O)NCCCn2ccnc2)c1 | 7.29 |
| CCCC1(C)NC(=O)c2ccccc2O1 (stereo not shown) | 4.99 |
| COc1ccc(/C=N/NC(=O)CC(=O)N/N=C/c2ccc(OC)cc2)cc1 | 0.563 |
| Cc1ccsc1/C=N/Nc1ccc(Cl)nn1 | 7.14 |
| Cl.O=C1NCC2(CCN(CCc3ccccc3)CC2)O1 | 20.8 |
| COc1cc2c(cc1OC)CN(C(=O)c1ccc(S(=O)(=O)N(C)c3ccccc3)cc1)CC2 | -30.1 |
| Cc1c(S(=O)(=O)N2CCCC(C(=O)O)C2)cnn1C (stereo not shown) | 16.8 |
| CN(C)CCNC(=O)c1onc(CSc2ccc(F)cc2)c1C(=O)NCCN(C)C | 3.62 |
| Cn1nc(-c2ccccc2)c(-c2nc(-c3ccc(Cl)cc3)no2)c1Cl | 6.65 |
| CC1(C)CC(=O)C2=C(C1)N(Cc1cccnc1)C(=O)C2(NC(=O)c1ccc(F)cc1)C(F)(F)F (stereo not shown) | -11 |

| SMILES | hERG current change (%, negative = inhibition) at 10uM [%] |
| --- | --- |
| COCCNC(=O)/C(C#N)=C/c1c(N2CCN(c3ccccc3)CC2)nc2c(C)cccn2c1=O | 5.92 |
| CCC(=O)c1ccc(N2CCN(C(=O)COc3ccc(F)cc3)CC2)c(F)c1 | -73.4 |
| O=C(Nc1cccc([N+](=O)[O-])c1)c1cccc(C(=O)Nc2cccc([N+](=O)[O-])c2)c1 | 24.1 |
| COc1ccc(CCNC(=O)C(=O)NCC2OCCN2S(=O)(=O)c2ccc3c(c2)OCCO3)cc1 (stereo not shown) | -6.31 |
| CC(C)OC(=O)c1cc(NC(=O)C2C3C=CC(O3)C2C(=O)O)cc(C(=O)OC(C)C)c1 (stereo not shown) | -1.28 |
| O=C(CN1C(=O)NC2(CCCCC2)C1=O)N1CCOCC1 | 1.01 |
| Cc1nc(N2CCOCC2)nc(OC(C)C)c1[N+](=O)[O-] | -1.05 |
| CCn1ncc(Br)c1C(=O)Nc1cc(C)ccc1F | -1.52 |
| Cc1ccc(C)c2sc(NC(=O)c3ccc(N4C(=O)CCC4=O)cc3)nc12 | -2.32 |
| COc1ccc(C(=O)C[n+]2ccc3c(c2)nc(-c2ccccc2)n3C)cc1.[Br-] | -1.44 |
| COc1cccc(-c2cc3c(=O)n(-c4ccccc4)c(=S)[nH]c3s2)c1 | 5.62 |
| COc1ccc(OC)c(NC(=O)C(C)N2c3cccc4cccc(c34)S2(=O)=O)c1 (stereo not shown) | 18.7 |
| Cc1ccccc1C(=O)c1c[nH]c(C(=O)N2CCN(c3ccccc3F)CC2)c1 | -5.6 |
| CCn1c(O)c(N=NC(=O)CNc2cccc(C)c2)c2ccccc21 | 0.933 |
| COc1cc(NC(=O)c2noc3c2CCCC3)c(OC)cc1Cl | 12.7 |
| COc1cccc(CN2CCN(c3nc4nonc4nc3N3CCCCC3)CC2=O)c1 | -23.6 |
| CCOc1ccc(C(=O)NC(C)C2COc3ccccc3O2)cc1 (stereo not shown) | -26.2 |
| COCCSc1nc2sc3c(c2c(=O)n1-c1ccccc1)CCN(C)C3 | 5.82 |
| CCCCNC(=O)NS(=O)(=O)c1ccc(C(=O)OC)o1 | 0.98 |
| CCOc1ccccc1NCc1cc(=O)oc2cc(C)c(O)cc12 | 17.9 |
| Cc1ccc(-c2csc(NC(=O)CN3CC(C)OC(C)C3)n2)cc1 (stereo not shown) | -5.28 |
| CC(C)(C)CC(=O)NC(=S)NCc1ccccc1 | 11.4 |
| O=C(NCC1CCCO1)C1CCCN(S(=O)(=O)c2ccc(Br)cc2)C1 (stereo not shown) | -12.8 |
| Cc1[nH]c(C)c(S(=O)(=O)N2CCN(c3cccc(C(F)(F)F)c3)CC2)c1C(=O)N1CCCCC1 | -1.72 |
| Cc1nnc(SCC(=O)N2CC(=O)Nc3ccccc32)n1-c1ccccc1 | 21.6 |
| Cc1ccc(OCCN2CCCCCC2)c(C)c1 | -34.6 |
| O=C1CCCN2N=C(SCC(=O)Nc3ccc(OC(F)(F)F)cc3)SC2=N1 | 15.7 |
